# Measured values as given in PubChem BioAssay AID493208 (National Center for Advancing Translational Sciences (NCATS), 2011).
# Among all 44,000 compounds or so, about 340 (0.77%) were called active. Inconclusive results (about 5%) are left out. The call rests on the fitted dose curve; in most records, active means well fitted inhibition curve with a large enough effect; inconclusive means small, poorly fitted or top-dose-only effect; inactive means flat fitted curve, though single readings scatter. The list shows a part of the results.
# Experiment: Acumen qHTS Assay for Inhibitors of the mTORC1 Signaling Pathway in MEF (Tsc2-/-, p53-/-) Cells: Sytravon;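 further: plate controls were DMSO for no effect and rapamycin for full effect; nearly all actives have a fitted effect of over 50% in size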
# Details: phospho-rpS6 immunofluorescence/PI, 24 h; series mostly up to 38.3 µM; activity change, negative = inhibition: at the top concentration
# Outline: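 Tsc2-/-, p53-/- mouse embryonic fibroblasts (empty-vector line) exposed to compound 24 hrs at 37 C, fixed, immunostained for phospho-rpS6 and counterstained with propidium iodide. Acumen laser scanning gives % positive cells from Alexa 488/PI ratio, thresholded using 7.5 nM rapamycin; PI count gives viability.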
row,Structure (SMILES),"activity change, negative = inhibition"
1,CCN1CCN(CCCNC(=O)c2cnn(-c3ccc(OC)cc3)c2C2CCN(C(=O)OC(C)(C)C)CC2)CC1,inactive: -0.758%
2,COC(=O)c1ccc(C(=O)OC)c(NC(=O)c2cnn3c(C(F)F)cc(-c4ccc(C)cc4)nc23)c1,inactive: -16.9%
3,CC1=Nc2cc(C(=O)NC3CCCC3)ccc2Sc2ccc(Cl)cc21,inactive: -20.1%
4,CCOC(=O)c1ccc(Nc2nc3ccccc3n3c(C)nnc23)cc1,inactive: 3.08%
5,CCOC(=O)c1cccc(NC(=O)CC2C(=O)N(c3ccc(F)cc3)C(=O)N2Cc2cccc(OC)c2)c1 (stereo not given),inactive: -14.6%
6,COc1ccc(N(C)S(=O)(=O)c2ccc3c(c2)n(C)c(=O)c(=O)n3C)cc1,inactive: -6.08%
7,CCOc1ccc(-c2noc(CSc3nnc(Cc4ccccc4)n3-c3ccc(F)cc3)n2)cc1,inactive: -1.21%
8,Cc1cccc(N2CCN(c3ncnc4c3cnn4-c3ccc(Cl)cc3)CC2C)c1 (stereo not given),inactive: 1.36%
9,COC(=O)c1scc(-c2ccc(C)cc2)c1S(=O)(=O)N1CCN(c2ccccc2F)CC1,inactive: -43.5%
10,O=C(Cn1c(-c2cccs2)cc2cc(F)ccc21)N1CCCCC1,inactive: -11.5%
11,COc1cccc(C(=O)Nc2c3c(nn2-c2ccc(C)cc2C)CS(=O)(=O)C3)c1OC,inactive: 0%
12,COc1ccc(CNC(=O)Cn2ncc3c(=O)oc4ccc(C)cc4c32)c(OC)c1,inactive: -8.23%
13,Cc1cc(=O)n2[nH]c(NC(=O)c3cccc(Cl)c3)nc2n1,inactive: -6.19%
14,Cc1c(C(=O)NCc2ccc(OC(C)C)cc2)sc2ncnc(N(C)C3CCCCC3)c12,inactive: 0.379%
15,CC1=Nc2cc(C(=O)N3CCCCC3)ccc2Sc2ccc(C)cc21,inactive: -4.05%
16,COc1ccccc1CCNC(=O)CCCn1c(=O)c2cccn2c2cccnc21,inactive: 1.46%
17,COc1ccc(-c2nc(CN3CCC(C(=O)NCc4ccc(F)cc4)CC3)c(C)o2)cc1OC,inactive: -9.06%
18,CCCC(=O)Nc1nnc(SCc2cc(=O)n3cccc(C)c3n2)s1,inactive: -4.62%
19,CCOC(=O)c1c(C)oc2nc(C)nc(N3CCN(c4cccc(C(F)(F)F)c4)CC3)c12,inactive: -5.8%
20,COc1ccc(C2CC(=O)N(CC(=O)Nc3ccc(C(C)=O)cc3)c3ccccc3S2)cc1OC (stereo not given),inactive: -10.4%
21,CCCN(CCC)CCNC(=O)c1nn(C)c2c1CS(=O)(=O)c1ccccc1-2,inactive: 6.53%
22,COc1ccc(CCC(=O)NC2CC(=O)N(c3ccccc3)C2)cc1 (stereo not given),inactive: -5.71%
23,CCOC(=O)c1c(NC(=O)/C=C/c2ccc(Cl)cc2)sc2c1CCC(C)C2 (stereo not given),inactive: -5.34%
24,Cc1ccccc1C(=O)n1nc(-c2ccco2)nc1NCc1cccs1,inactive: 1.48%

row,Structure (SMILES),"activity change, negative = inhibition"
1,COc1cc(Cl)c(C)cc1NC(=O)c1nn(C)c2c1CSc1ccccc1-2,inactive: 1.77%
2,COc1ccc(CNC(=O)c2cc(-c3ccc(Cl)cc3)n[nH]2)cc1,inactive: -7.39%
3,O=C(NCc1nc(-c2ccccc2)no1)c1ccco1,inactive: -0.314%
4,CCn1cc(C(=O)NCCc2ccccc2)c(=O)c2cc(S(=O)(=O)N3CCc4ccccc4C3)ccc21,inactive: -1.14%
5,CCCN(CCC)CCCNC(=O)c1cn(C)c2ccc(S(=O)(=O)N3CCOCC3)cc2c1=O,inactive: -7.39%
6,O=S(=O)(NCCc1csc2nc(-c3ccc(Cl)cc3)nn12)c1ccc2c(c1)OCCO2,inactive: -1.04%
7,COC(=O)c1ccc2c(=O)n(CCCCCC(=O)NCc3ccc(OC)cc3)c(=O)[nH]c2c1,inactive: -6.64%
8,COc1ccc(-c2cc(C)no2)cc1S(=O)(=O)N1CCOc2ccc(Cl)cc21,inactive: 9.17%
9,CC(C)c1ccc(NC(=O)CN2C(=O)COc3ccc(S(=O)(=O)N4CCOCC4)cc32)cc1,inactive: -10.1%
10,COc1ccc(CCNc2nc(SCc3cccc(F)c3)nc3ccccc23)cc1OC,inactive: 0.815%
11,CCC(C)NC(=O)CN1C(=O)c2cccnc2Oc2ccc(C)cc21 (stereo not given),inactive: -3.34%
12,O=C(CSc1nccn1Cc1ccc(Cl)cc1)Nc1ccc2c(c1)OCO2,inactive: -6.43%
13,Cc1nn(-c2ccc(N3CCOCC3)nn2)c(C)c1CCC(=O)Nc1ccc(F)cc1F,inactive: -9.26%
14,COc1ccc(NC(=O)C2CCCN(S(=O)(=O)c3c(C)[nH]c(=O)[nH]c3=O)C2)cc1Cl (stereo not given),inactive: -7.57%
15,Cc1cc(C)cc(OCCSc2nc(-c3cccs3)nc3cc(=O)[nH]n23)c1,inactive: 7.81%
16,CCc1cc2c(cc3c(=O)n(CC(=O)NCCc4ccccc4)ncn32)s1,inactive: -0.3%
17,O=C(Nc1ccc(Cl)c(C(F)(F)F)c1)C(Cc1ccccc1)NS(=O)(=O)c1cccc2nsnc12 (stereo not given),inactive: 3.49%
18,Cc1ccc(C)c(NC(=O)c2ccc3c(c2)CCN3S(=O)(=O)c2ccccc2)c1,inactive: 1.83%
19,COc1ccc2oc(=O)c(-c3nc(-c4ccc(C)c(C)c4)cs3)cc2c1,inactive: -9.13%
20,CCC(Sc1nc2ncccc2o1)C(=O)Nc1cccc(C)c1 (stereo not given),inactive: -7.28%
21,CCc1ccc(C2c3c(-c4ccccc4)n[nH]c3C(=O)N2c2ccc(C(=O)O)cc2)cc1 (stereo not given),inactive: -19.4%
22,COc1cccc(-n2cc(C(=O)NCc3ccc(C)cc3)c3ccccc3c2=O)c1,inactive: -2.73%
23,O=C(CN1N=C(c2ccccc2)CCC1=O)NCc1ccc(F)cc1Cl,inactive: 8.19%
24,CCCCOC(=O)c1ccc(Nc2nnc(-n3nc(C)cc3C)c3ccccc23)cc1,inactive: 0%

row,Structure (SMILES),"activity change, negative = inhibition"
1,Cc1nnc2c3ccccc3nc(Nc3cccc(O)c3)n12,inactive: -10.2%
2,COc1cc(C2C(C(=O)Nc3ccccc3)=C(C)Nc3nnnn32)cc(OC)c1OC (stereo not given),inactive: 7.41%
3,COc1ccc(-c2noc(CN(C(=O)c3cc(OC)c(OC)cc3OC)C(C)C)n2)cc1,inactive: 2.38%
4,O=C(NC1CC(=O)N(c2ccc(Cl)cc2)C1)c1ccc(S(=O)(=O)N2CCOCC2)cc1 (stereo not given),inactive: -0.157%
5,CCOC(=O)c1ccc(NC(=O)c2nc(SCc3ccccc3F)ncc2Cl)cc1,inactive: -3.75%
6,COc1ccc(-c2noc(CSc3nc(N)cc(=O)[nH]3)n2)cc1OC,inactive: -1.07%
7,Cc1ccc(Cl)cc1NC(=O)C1CCN(c2nc3ccccc3n3cccc23)CC1,inactive: 5.2%
8,CCCn1c2ccccc2c2cnn(CC(=O)NCCc3ccc(C)cc3)c(=O)c21,inactive: -12.3%
9,CCOc1ccc2nc(N3CCCC(C(=O)NCc4ccccc4OC)C3)sc2c1 (stereo not given),inactive: -0.652%
10,Cc1ccc(/C=C/c2onc(C)c2S(=O)(=O)N2CCC(C(=O)Nc3cc(F)ccc3F)CC2)cc1,inactive: -10.9%
11,CCc1nn(CC(=O)NCCCOC)c(=O)c2cc3ccccc3n12,inactive: -6.08%
12,Cc1ccc(CN2CCCn3nc(C(=O)NCC(C)c4ccccc4)cc3C2=O)cc1 (stereo not given),inactive: -3.04%
13,COCCn1c(=O)[nH]c2cc(C(=O)Nc3cccc(C(C)=O)c3)ccc2c1=O,inactive: -2.33%
14,Cc1cc(C)c2oc(C(=O)Nc3ccc(S(=O)(=O)Nc4nccc(C)n4)cc3)cc(=O)c2c1,inactive: 0.73%
15,Cc1cc(C)cc(-n2ccn(Cc3ccc(F)cc3)c(=O)c2=O)c1,inactive: 0.577%
16,CCOc1ccc(S(=O)(=O)NCCc2sc3nc(-c4ccc(C)cc4)nn3c2C)cc1,inactive: -1.18%
17,CCCn1c(CCC(=O)Nc2ccccc2OC)nc2cccnc21,inactive: -15.3%
18,COc1ccc2oc(-c3cccc(NC(=O)c4sc5c([N+](=O)[O-])cccc5c4Cl)c3)nc2c1,inactive: 4.17%
19,Cc1cccc(C)c1Nc1c(-c2ccc(O)cc2)nc2sccn12,inactive: -29.9%
20,O=c1oc2ccccc2cc1-c1cn2cc(Cc3ccc(Br)cc3)sc2n1,inactive: -13.4%
21,O=c1c2sc3ccccc3c2n(Cc2cccc(C(F)(F)F)c2)c(=O)n1Cc1ccc(F)cc1,inactive: -4.62%
22,COc1ccc(NC(=O)CC2C(=O)N(c3cccc(OC)c3)C(=O)N2Cc2ccc3c(c2)OCO3)cc1 (stereo not given),inactive: 0.622%
23,Cc1ccc(-c2cn(-c3ccc(Cl)cc3)c(S(=O)(=O)CC(=O)Nc3ccccc3)n2)cc1,inactive: -20.7%
24,COc1ccc(S(=O)(=O)c2nnn(-c3ccc(C)c(Cl)c3)c2C)cc1,inactive: 0.15%

row,Structure (SMILES),"activity change, negative = inhibition"
1,Cc1cc(C)cc(NC(=O)C2CCN(S(=O)(=O)c3cccc(-c4noc(C)n4)c3)CC2)c1,inactive: -6.77%
2,Fc1ccc(Br)cc1C1C=C(c2ccc(Br)cc2)Nc2nnnn21 (stereo not given),inactive: -10.5%
3,Cc1ccc(CNC(=O)CCCN2C(=O)COc3ccc(C)cc32)cc1,inactive: 9.79%
4,O=C(CC1N=C2c3ccccc3N=C(SCC(=O)Nc3ccccc3F)N2C1=O)NCc1cccs1 (stereo not given),inactive: -1.17%
5,Cc1cccc(NC(=O)C(=O)NCCc2csc(-c3ccc(C(F)(F)F)cc3)n2)c1C,inactive: -8.37%
6,Cc1ccc(NC(=O)c2c(NC(=O)c3ccccc3)sc3c2CCC3)cc1,inactive: -3.36%
7,Cc1ccc2sc(N(Cc3cccnc3)C(=O)C3COc4ccccc4O3)nc2c1C (stereo not given),inactive: 1.24%
8,CC1CCc2c(sc(NC(=O)c3cc(-c4ccc(F)cc4)on3)c2C(N)=O)C1 (stereo not given),inactive: 1.41%
9,CCc1ccc(CN(C(=O)c2cc(=O)c3ccc(C)cc3o2)C2CCS(=O)(=O)C2)cc1 (stereo not given),inactive: -8.62%
10,CC(C)Cn1c(=O)c2sccc2n2c(CCCC(=O)NC3CCCCC3)nnc12,inactive: 0.316%
11,COc1cccc(CNC(=O)CCCn2nc(C)c3c(C)n(-c4ccc(C)cc4)nc3c2=O)c1OC,inactive: -8.1%
12,COc1ccc(CNC(=O)Cn2nc(C)c3c(C)n(-c4ccccc4)nc3c2=O)cc1OC,inactive: 0.277%
13,CCc1ccc(C2CC(=O)Oc3c2c(=O)n(C)c2ccccc32)cc1 (stereo not given),inactive: -4.88%
14,Cc1cccc(-c2nc(C(N)=O)c3c(n2)n(-c2ccc4c(c2)OCO4)c(=O)n3C)c1,inactive: -12.3%
15,CCCCc1ccc(NC(=O)C2(C)Cc3ccccc3C(=O)O2)cc1 (stereo not given),inactive: -16.7%
16,Cn1c(=O)c2nc(SCC(=O)Nc3ccc(Cl)c(Cl)c3)n(C)c2n(C)c1=O,inactive: -3.79%
17,Cc1cc(C)cc(NC(=O)Cn2cc(C(=O)c3ccccc3)c(=O)c3ccc(C)nc32)c1,inactive: 3.6%
18,Cc1ccc(CN(Cc2ccco2)c2cnc(S(C)(=O)=O)nc2C(=O)Nc2ccccc2Br)o1,inactive: -0.348%
19,CCOC(=O)CSc1nc2ccc(NC(=O)COc3ccccc3C)cc2s1,inactive: -4.81%
20,Cc1ccc(-n2c3nc(=O)[nH]c(=O)c-3cc3c(C)nn(-c4ccccc4)c32)c(C)c1,inactive: 0.887%
21,Cc1ccc(Cl)cc1NC(=O)CCS(=O)(=O)c1ccc2c(c1)n(C)c(=O)c(=O)n2C,inactive: -5.15%
22,O=C(Nc1ccc(Cl)cc1)c1cc2c(-c3ccccc3)nn(-c3ccccc3)c2s1,inactive: -2.76%
23,Cc1nn(CC(=O)N2CCCCC2)c(=O)c2cc3occc3n12,inactive: 1.59%
